From PubChem BioAssay AID1345082 (National Center for Advancing Translational Sciences (NCATS), 2018)
The campaign covered roughly 94,000 compounds. About 4,000 (4.3%) were called active. The inconclusive results got no clear call from the source; some entries with a clear call stand among them for comparison. Calls come from the whole dose curve; as a rule, active = well fitted inhibition curve with a large enough effect; inconclusive = small, poorly fitted or top-dose-only effect; inactive = no such curve, though single readings can be large or run the other way. A potency beside an inconclusive call is a rough fit, not a confirmed value.

test: Cytotoxic Profiling in NIH 3T3 Cell Line of Diverse Libraries Using Quantitative High-Throughput Screening; conditions: NIH 3T3 viability, CellTiter-Glo ATP luminescence, 48-72 h; activity change, negative = cytotoxicity: at 96.7 µM (top of the series) unless noted; series mostly up to 96.7 µM; note: nearly all actives have a fitted effect of over 55% in size
Summary of the method: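 First NIH 3T3 cells are plated at 400 cells/well; next compound is pinned in; then plates incubate 48 or 72 hr at 37 °C; finally CellTiter-Glo is added and luminescence read after 10 min.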
% is set by controls: 0 for no effect and ±100 for the full control effect; potency is the fitted concentration of half-maximal effect; tags give direction and shape of the fitted curve.

Row | SMILES | Potency | activity change, negative = cytotoxicity | outcome
1 | COc1ncccc1-c1nc2cc(C(=O)NCc3cccc(Cl)c3)ccc2o1 | inconclusive: 12.6 µM [inhibitor, full curve, poor fit] |  | 
2 | CCCNC(=O)N(C1CCOCC1)C1CCN(C(=O)c2ccc(F)c(F)c2)CC1 | inconclusive: 50.1 µM [inhibitor, single point] |  | 
3 | O=C(Cc1ccccn1)N1CCC(C(=O)N2CCC(N3Cc4ccccc4C3=O)CC2)CC1 |  | inactive: 2.66% | 
4 | COC(=O)C1CCN(C(=O)CC[C@H]2CNC(=O)[C@@H]3[C@@H](CCN3Cc3cccs3)N2C)CC1 |  | inactive: -16% | 
5 | CC(C)C1CN(C(=O)c2nccn2C)CCC(=O)N1Cc1ccc(F)cc1 (stereo not given) |  | inactive: -1.88% | 
6 | O=C(CCn1ccn2nc3c(c2c1=O)CCCC3)N1CC(=O)N(CCc2ccccc2)C(=O)C1 |  |  | inactive
7 | COCCNC(=O)c1cn2cc(-c3cccnc3)sc2n1 |  | inactive: -21.6% | 
8 | O=C(c1ccoc1)N1CCN(c2cc(-c3ccc(Cl)cc3)[nH]n2)CC1 | inconclusive: 25.1 µM [inhibitor, partial curve, poor fit] |  | 
9 | CCc1ccc(N2CC(c3noc(C4(c5ccccc5)CC4)n3)CC2=O)cc1 (stereo not given) | inconclusive: 70.8 µM [inhibitor, single point] |  | 
10 | CC(NC(=O)C1CCN(c2cc(C(F)(F)F)ncn2)CC1)c1ccccc1 (stereo not given) | inconclusive: 14.1 µM [inhibitor, partial curve, poor fit] |  | 
11 | Cc1cc(=O)n(CC(=O)NCc2ccc(F)cc2)c(N2CCc3ccccc3C2)n1 | inconclusive: 44.7 µM [inhibitor, partial curve, poor fit] |  | 
12 | Cc1noc(C)c1-c1cc2cc(C(C)C)oc2c(-c2c(C)noc2C)n1 | inconclusive: 63.1 µM [inhibitor, partial curve, poor fit] |  | 
13 | O=C([C@@H]1C[C@H](Oc2ccccc2)CN1C(=O)C1CCCC1)N1CCOCC1 |  | inactive: -18.8% | 
14 | CCc1csc(CNC(=O)C(CC)n2cc(C(C)=O)c3ccccc32)n1 (stereo not given) | inconclusive: 8.91 µM [inhibitor, full curve, poor fit] |  | 
15 | CC(C)c1noc(-c2cn(C3CCN(C(=O)c4ccc(F)cc4Cl)CC3)nn2)n1 | inconclusive: 22.4 µM [inhibitor, partial curve, poor fit] |  | 
16 | O=C(NCCC1=CCCCC1)c1cc2n(n1)CC(c1ccc(Cl)cc1)OC2 (stereo not given) | inconclusive: 39.8 µM [inhibitor, partial curve, poor fit] |  | 
17 | CN(C(=O)Nc1ccc(Cl)cc1)C1CCCc2ccccc21 (stereo not given) | inconclusive: 56.2 µM [inhibitor, partial curve, poor fit] |  | 
18 | COc1ccccc1CN1CCNc2cc(Nc3ccccc3)ncc2C1 | active: 35.5 µM |  | 
19 | CSc1ccc(-c2cccc(CN3CCC(NC(=O)Nc4ccccc4F)CC3)c2)cc1 | active: 12.6 µM |  | 
20 | COc1ccc(CN2Cc3[nH]nc(-c4ccccc4Oc4ccccc4)c3CC2=O)cc1 | inconclusive: 25.1 µM [inhibitor, full curve, poor fit] |  | 

Row | SMILES | Potency | activity change, negative = cytotoxicity | outcome
21 | COc1ccc(C(=O)N2CCc3nc(C(C)C)nc(-c4ccc(OC)cc4)c3CC2)cc1 | inconclusive: 44.7 µM [inhibitor, partial curve, poor fit] |  | 
22 | CN(c1ccccc1)c1cc(=O)c2ccnc(-c3cncnc3)c2o1 | active: 79.4 µM |  | 
23 | Cc1cc(CC(=O)N2C[C@@H](COCC3CC3)[C@H](c3ccncc3)C2)on1 |  | inactive: -12.6% | 
24 | CSc1ccc(-c2cccc(CN3CCC(NC(=O)c4ccccc4F)CC3)c2)cc1 | inconclusive: 31.6 µM [inhibitor, partial curve, poor fit] |  | 
25 | O=C(NC1CCCCCCC1)C1CCCN(c2cnn(Cc3ccccc3)c(=O)c2)C1 (stereo not given) | inconclusive: 28.2 µM [inhibitor, partial curve, poor fit] |  | 
26 | O=C(c1ccnc(-c2ccncc2)c1)N1CCCC1 |  | inactive: -3.12% | 
27 | COCCNC(=O)c1cnc2c(c1)N(Cc1ccccc1C(F)(F)F)CCC2 | inconclusive: 89.1 µM [inhibitor, partial curve, poor fit] |  | 
28 | O=C(c1ccco1)N1CCCCCC1c1nnc(-c2ccccc2)o1 (stereo not given) | inconclusive: 44.7 µM [inhibitor, partial curve, poor fit] |  | 
29 | Cn1ncc2c(C(=O)N3CCC(Cc4ccccc4)CC3)cc(-c3ccccc3F)nc21 | inconclusive: 50.1 µM [inhibitor, partial curve, poor fit] |  | 
30 | O=C(NC1CCN(c2cc(C(F)(F)F)ncn2)CC1)c1cccc(Cl)c1 | inconclusive: 22.4 µM [inhibitor, partial curve] |  | 
31 | Cc1cc(C)n(Cc2ccc(C(=O)N3CC[C@@H](n4c(=O)n(C)c5cccnc54)C3)o2)n1 | inconclusive: 70.8 µM [inhibitor, single point] |  | 
32 | CCN(CCNC(=O)C1CCCN(c2cnn(C)c(=O)c2)C1)c1cccc(C)c1 (stereo not given) |  | inactive: -26.2% | 
33 | COc1cccc(-c2ccc(C(=O)NCCN[S+](=O)([O-])c3c(C)noc3C)cc2)c1 | inconclusive: 50.1 µM [inhibitor, partial curve, poor fit] |  | 
34 | Cc1cccc(N2C(=O)CSC23CCN(C(=O)C2CC2)CC3)c1 | inconclusive: 50.1 µM [inhibitor, partial curve, poor fit] |  | 
35 | O=c1c2c(CO)c(-c3ccccc3)nn2ccn1Cc1cccc(C(F)(F)F)c1 | inconclusive: 28.2 µM [inhibitor, full curve, poor fit] |  | 
36 | O=C(NC1CC1)C1COC2(CCN(C(=O)c3cccc(Cl)c3)CC2)N1C(=O)c1ccc(F)cc1 (stereo not given) | inconclusive: 50.1 µM [inhibitor, partial curve, poor fit] |  | 
37 | COc1ccc(CN2CCC3(CNS(=O)(=O)c4cnccc4O3)C2)cc1 (stereo not given) |  |  | inactive
38 | Cc1cc(C)nc(SCc2ccc(-c3nc(C4CCOC4)no3)o2)n1 (stereo not given) | inconclusive: 89.1 µM [inhibitor, single point] |  | 
39 | Cn1ncc2c(C(=O)Nc3cccc(C(F)(F)F)c3)cc(-c3ccc(F)cc3)nc21 | inconclusive: 44.7 µM [inhibitor, partial curve, poor fit] |  | 
40 | CCOc1cc(-c2noc(-c3ncn4c3COC(c3ccc(OC)cc3)C4)n2)ccc1OC (stereo not given) |  | inactive: -29.4% | 
